Hit rate of the full screen: of about 420,000 compounds, about 50,000 (12%) were called active. The inconclusive results got no clear call from the source; some entries with a clear call stand among them for comparison. Calls come from the whole dose curve; as a rule, active = well fitted inhibition curve with a large enough effect; inconclusive = small, poorly fitted or top-dose-only effect; inactive = flat fitted curve, though single readings scatter. No potency is given beside an inconclusive call; the fits are too rough.
assay: qHTS for Inhibitors of human tyrosyl-DNA phosphodiesterase 1 (TDP1): qHTS in cells in presence of CPT; details: chicken DT40 Tdp1-/-;hTDP1 cells + 20 nM CPT, ATP luminescence, 48 h; activity change, negative = growth inhibition: at 46.2 µM (top of the series) unless noted; note: nearly all actives have a fitted effect of over 55% in size
Outline: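 Cell growth measured by CellTiter-Glo luminescence after a minimum 48 h, 37 C compound exposure with 20 nM CPT in Tdp1-knockout DT40 cells stably expressing hTDP1, seeded 400/well; qHTS titration format.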
% is set by controls: 0 for no effect and ±100 for the full control effect; potency is the fitted concentration of half-maximal effect; tags give direction and shape of the fitted curve.

Compound	activity change, negative = growth inhibition	Potency
C#CCOCCOCCOCCNc1nc(N2CCN(C(=O)[C@H]([C@@H](C)CC)n3cc([C@@H](N)CC(C)C)nn3)CC2)nc(N2CCN(C(=O)[C@H](CCCCN)n3cc([C@@H](N)CO)nn3)CC2)n1	inconclusive: -34.6% [inhibitor]	–
O=C(OCc1ccccc1)C1=NNC2C(=O)N(Cc3ccccc3)C(=O)C12 (stereo not given)	inactive: 0.197%	–
Cc1cccc(C(=O)OCC(=O)NCc2cccs2)c1	–	inconclusive [inhibitor, single point]
COc1ccc(-n2c(-c3ccc(Cl)cc3)c[n+]3c2CCCCC3)cc1	–	active: 0.82 µM
Cc1nnc2ccc(-c3ccc(NC(=O)c4cccnc4Cl)cc3)nn12	–	inconclusive [inhibitor, single point]
Cc1cc(S(=O)(=O)NCc2ccc(N3CCN(C)CC3)cc2)c(C)s1	–	inconclusive [inhibitor, single point]
COc1ccc(C(=O)O/N=C(\N)c2ccccn2)c(OC)c1	inactive: -21.8%	–
COc1cccc(C(=S)N2CCOCC2)c1OS(=O)(=O)c1ccc(Cl)cc1	–	inconclusive [inhibitor, single point]
COC(=O)C(C)Sc1nc2c(cnn2-c2ccccc2)c(=O)[nH]1 (stereo not given)	inactive: -13.1%	–
O=C(CCS(=O)(=O)c1cc(Br)cc2c1N(C(=O)C1CC1)CC2)N1CCN(c2cccc(Cl)c2)CC1	inactive: 1.78%	–
Cc1cccc(C(=O)NCC(=O)NC(C)CCc2ccccc2)c1 (stereo not given)	inactive: 1.44%	–
COc1ccc(-c2nc3ccccc3n3c(-c4cccc(C)c4)c4c(=O)n(C)c(=O)n(C)c4c23)cc1OC	–	active: 16.4 µM
CC(C)n1c(=O)c2ccccc2n1Cc1cn(-c2ccc(Cl)cc2)nn1	–	inconclusive [inhibitor, single point]
CSc1cccc(CN2CCC(CCC(=O)NC3CC3)CC2)c1	inactive: -8.99%	–
CO/N=C/c1c(-c2ccc(Cl)cc2)nc2cc(C)ccn12	–	inconclusive [inhibitor, single point]
O=C(CSc1nnc(-c2ccc(S(=O)(=O)N3CCCC3)cc2)o1)NCc1ccccc1	–	active: 23.1 µM
CCSc1nnc(SCC(=O)c2c(N)n(C)c(=O)n(C)c2=O)s1	–	inconclusive [inhibitor, single point]
COc1ccccc1Nc1nc(N)nc(CN2CCC(Cc3ccccc3)CC2)n1	–	inconclusive [inhibitor, single point]
COc1ccc(-c2nc3c(C(=O)NCCN(C)C)cccc3c3ccccc23)cc1	–	active: 1.3 µM
COC(=O)c1ccc(CNC(=O)c2ccc(S(=O)(=O)N3CCCC(C)C3)cc2)cc1 (stereo not given)	–	inconclusive [inhibitor, single point]
Cc1cc(C)c(NC(=O)c2nc3ccccc3nc2N2CCCCC2)c(C)c1	–	inconclusive [inhibitor, single point]
COc1ccc(S(=O)(=O)N2CCC(C(=O)N(C)Cc3ccc(C)o3)CC2)cc1OC	inactive: -19.4%	–
Cc1ccc2cn[nH]c2c1N	inactive: 0.0306%	–
CCCCNC(=O)C1CCC(Cn2c(=O)c3sccc3n(Cc3ccccc3)c2=O)CC1 (stereo not given)	inactive: 0.0281%	–

Compound	activity change, negative = growth inhibition	Potency
CNC(=O)COC(=O)c1cc(-c2ccco2)nc2ccccc12	–	active: 14.6 µM
CC1CCN(S(=O)(=O)c2ccc(NC(=O)c3cccs3)cc2)CC1	–	inconclusive [inhibitor, single point]
CS(=O)(=O)c1ccc(S(=O)CC(=O)Oc2ccc(Cl)cc2)c([N+](=O)[O-])c1 (stereo not given)	–	active: 1.16 µM
COc1cc(/C=C(\C#N)c2nc3ccccc3[nH]2)ccc1Oc1ccc([N+](=O)[O-])cn1	–	active: 11.6 µM
COC(=O)c1ccccc1NC(=O)c1ccc(COc2cccc3ccccc23)o1	–	inconclusive [inhibitor, single point]
CCc1ccc2oc(=O)cc(CN3CCN(c4ccc(F)cc4)CC3)c2c1	–	inconclusive [inhibitor, single point]
O=C1NC(Cc2ccccc2)c2nc3ccc(Br)cc3c(=O)n2-c2cc3ccccc3cc21 (stereo not given)	–	inconclusive [inhibitor, single point]
COc1cc(NC(=O)C2CCN(C(=O)c3sc4nc[nH]c(=O)c4c3C)CC2)cc(OC)c1OC	inactive: -7.1%	–
Cc1cccc(Cl)c1NC(=O)N1CCN(c2ccnc3cc(Cl)ccc23)CC1	–	inconclusive [inhibitor, single point]
Cc1cc(C(=O)N2CCN(c3ccccc3)CC2)c2c(C)nn(-c3cccc(F)c3)c2n1	–	inconclusive [inhibitor, single point]
C=CC[C@H](CC(=O)NCCO)C(=O)N[C@H](C)COC(=O)[C@@H](CC=C)Cc1ccc(F)cc1	–	inconclusive [inhibitor, single point]
CCCCn1c(=NC(=O)c2ccc3c(c2)OCO3)c(C#N)cc2c(=O)n3cccc(C)c3nc21	–	active: 7.31 µM
CCOC(=O)C(CC)n1cnc2c(cnn2-c2ccc(Cl)cc2)c1=O (stereo not given)	–	inconclusive [inhibitor, single point]
CC1=C(C(=O)OC2CCCC2)C(c2c(Cl)cccc2Cl)CC(=O)N1 (stereo not given)	–	inconclusive [inhibitor, single point]
CC[C@@]12C(=O)N(c3cccc(Cl)c3)C(=O)N1[C@H](c1ccc(Br)cc1)[C@@H]1C(=O)N(C(C)(C)C)C(=O)[C@@H]12	–	active: 25.9 µM
CCSc1nnc(-c2ccc(Cl)cc2)c2ccccc12	–	inconclusive [inhibitor, single point]
NC(Cc1ccc(Cl)cc1)c1csc(NC(=O)NCCc2ccccc2)n1 (stereo not given)	–	active: 23.1 µM
O=C1COc2ccc(C(=O)COC(=O)c3ncc(Cl)c(Cl)c3Cl)cc2N1	–	inconclusive [inhibitor, partial curve, poor fit]
Cc1ccc(O)c(C2=Nc3ccccc3C2(C)C)c1	–	inconclusive [inhibitor, single point]
CCOc1ccccc1N	inactive: 5.03%	–
Cn1ccnc1C(O)c1ccco1 (stereo not given)	inactive: -6.48%	–
Cc1ccc(N2C(=O)c3n[nH]c(C)c3C2c2ccc(Cl)cc2)cc1 (stereo not given)	–	inconclusive [inhibitor, single point]
CCOc1ccc(NC(=O)N2CCC(n3c(=O)[nH]c4ccccc43)CC2)cc1	–	inconclusive [inhibitor, single point]
CN(Cc1ccccc1)C(=O)c1csc([C@H]2C[C@H](O)[C@@H](CO)O2)n1	inactive: 6.64%	–

Compound	activity change, negative = growth inhibition	Potency
CC(=O)OCCn1c2nc(=O)[nH]c(=O)c-2nc2cc(C)c(C)cc21	–	inconclusive [inhibitor, single point]
c1ccc(C(c2ccccc2)N2CC[C@@]3(CCCNC3)C2)cc1	–	inconclusive [inhibitor, single point]
CCCc1nnc(NC(=O)c2ccc(S(=O)(=O)N(C)c3ccccc3OC)cc2)s1	inactive: -5.49%	–
N=C1N=C(N)c2cc3ccccc3cc21	–	inconclusive [inhibitor, single point]
Cc1ccsc1C=Nc1ccc(O)cc1	–	inconclusive [inhibitor, single point]
Cc1ccn2c(NCc3ccccc3)c(-c3cccc(SC4CCCCC4)c3)nc2c1	–	active: 23.1 µM
Cc1ccc(C)c(-c2nnc(NC(=O)Cc3ccc(F)cc3)o2)c1	–	active: 11.6 µM
Cc1ccc(NC(=O)Cn2nc(C(F)(F)F)c3c2CCCC3)cc1C	–	inconclusive [inhibitor, single point]
CCOc1ccc(C2=CS/C(=C(\C#N)c3nnc4n3CCCCC4)N2CC)cc1	–	inconclusive [inhibitor, single point]
Cc1ccnc(NC(=S)NC(=O)c2cncc(Br)c2)c1	inconclusive: -18.3% [inhibitor]	–
Cc1cc(C)cc(NC(=O)CSc2oc(-c3ccccc3)nc2S(=O)(=O)c2ccc(Cl)cc2)c1	–	active: 5.17 µM
COc1ccc(OC)c(NC(=O)CC(Cc2ccccc2OC)C(=O)O)c1 (stereo not given)	–	inconclusive [inhibitor, single point]
COc1ccccc1-c1nnc(NC(=O)c2ccc(S(=O)(=O)N(C)C)cc2)o1	–	inconclusive [inhibitor, single point]
CCn1c(-c2cc(-c3cc(C)ccc3C)nc3ccccc23)n[nH]c1=S	–	inconclusive [inhibitor, single point]
O=C(CN1CCN(c2ccccc2F)CC1)NC(=O)NC1CCCCC1	–	inconclusive [inhibitor, partial curve, poor fit]
CCc1ccc(-n2c(=O)c3c4c(sc3n(Cc3cc(=O)n5c(C)cccc5n3)c2=O)CCC4)cc1	–	inconclusive [inhibitor, full curve, poor fit]
CCOC(=O)c1[nH]c2c(c1Cc1ccccc1OC)C(=O)CC(c1ccc(OC)cc1)C2 (stereo not given)	–	inconclusive [inhibitor, single point]
COc1ccc(-c2cn(Cc3ccc(C)cc3)nn2)cc1	–	inactive
CCc1ccccc1NS(=O)(=O)c1ccc2nc(-c3ccccc3)[nH]c2c1	–	active: 20.6 µM
COc1cc(CN2C(=O)C(Cc3ccccc3)ON=C2c2ncccc2C)cc(OC)c1 (stereo not given)	–	inconclusive [inhibitor, single point]
CCOc1ccc(NC(=O)c2nc(S(=O)(=O)Cc3ccccc3C)ncc2Cl)cc1	–	active: 1 µM
CN(Cc1ccccn1)C(=O)c1cc(COc2ccc(F)c(F)c2)on1	–	active: 18.4 µM

Reference: PubChem BioAssay AID686979 (National Center for Advancing Translational Sciences (NCATS), 2013)
